Data from the supplement of paper PMC8728848.
This is one part of the list.

How the values were obtained:
Assay in all cases: glycan array binding signal (z-score within array); higher = stronger binding
Conditions in all cases: glycan notation: IUPAC condensed, linker removed
[1] = biological target: Neu5Ac(a2-3)Gal(b1-3)GalNAc(b1-3)Gal(b1-4)GlcNAc
Method in brief: (§1)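 The binding signal is a Z-score computed within each array. Data were drawn from 3228 arrays in the Consortium for Functional Glycomics database, restricted to those with a known protein sequence. Scores were averaged over arrays of the same protein sequence at different concentrations or buffers, and over linkers, and negative values can be taken as non-binding.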

[2] = biological target: Neu5Ac(a2-3)Gal(b1-3)GalNAc(b1-4)[Neu5Ac(a2-3)]Gal(b1-4)Glc
Method in brief: as §1

[3] = biological target: Neu5Ac(a2-3)Gal(b1-3)GalNAc6S
Method in brief: as §1

[4] = biological target: Neu5Ac(a2-3)Gal(b1-3)GlcNAc
Method in brief: as §1

[5] = biological target: Neu5Ac(a2-3)Gal(b1-3)GlcNAc6S
Method in brief: as §1

[6] = biological target: Neu5Ac(a2-3)Gal(b1-3)[Fuc(a1-4)]GlcNAc
Method in brief: as §1

[7] = biological target: Neu5Ac(a2-3)Gal(b1-3)[Fuc(a1-4)]GlcNAc(b1-3)Gal(b1-4)[Fuc(a1-3)]GlcNAc
Method in brief: as §1

[8] = biological target: Neu5Ac(a2-3)Gal(b1-3)[Neu5Ac(a2-3)Gal(b1-4)]GlcNAc
Method in brief: as §1

[9] = biological target: Neu5Ac(a2-3)Gal(b1-3)[Neu5Ac(a2-6)]GalNAc
Method in brief: as §1

Neu5Ac(a2-3)Gal(b1-4)Glc = biological target: Neu5Ac(a2-3)Gal(b1-4)Glc
Method in brief: as §1

[10] = biological target: Neu5Ac(a2-3)Gal(b1-4)GlcNAc
Method in brief: as §1

[11] = biological target: Neu5Ac(a2-3)Gal(b1-4)GlcNAc(b1-2)Man(a1-3)[Neu5Ac(a2-3)Gal(b1-4)GlcNAc(b1-2)Man(a1-6)]Man(b1-4)GlcNAc(b1-4)GlcNAc
Method in brief: as §1

[12] = biological target: Neu5Ac(a2-3)Gal(b1-4)GlcNAc(b1-3)Gal(b1-4)GlcNAc
Method in brief: as §1

[13] = biological target: Neu5Ac(a2-3)Gal(b1-4)GlcNAc(b1-3)Gal(b1-4)GlcNAc(b1-3)Gal(b1-4)GlcNAc
Method in brief: as §1

[14] = biological target: Neu5Ac(a2-3)Gal(b1-4)GlcNAc(b1-3)Gal(b1-4)[Fuc(a1-3)]GlcNAc
Method in brief: as §1

[15] = biological target: Neu5Ac(a2-3)Gal(b1-4)GlcNAc6S
Method in brief: as §1

[16] = biological target: Neu5Ac(a2-3)Gal(b1-4)[Fuc(a1-3)]GlcNAc
Method in brief: as §1

[17] = biological target: Neu5Ac(a2-3)Gal(b1-4)[Fuc(a1-3)]GlcNAc(b1-3)Gal
Method in brief: as §1

[18] = biological target: Neu5Ac(a2-3)Gal(b1-4)[Fuc(a1-3)]GlcNAc(b1-3)Gal(b1-4)GlcNAc
Method in brief: as §1

[19] = biological target: Neu5Ac(a2-3)Gal(b1-4)[Fuc(a1-3)]GlcNAc(b1-3)Gal(b1-4)[Fuc(a1-3)]GlcNAc(b1-3)Gal(b1-4)[Fuc(a1-3)]GlcNAc
Method in brief: as §1

[20] = biological target: Neu5Ac(a2-3)Gal(b1-4)[Fuc(a1-3)]GlcNAc6S
Method in brief: as §1

[21] = biological target: Neu5Ac(a2-3)Gal6S(b1-4)GlcNAc
Method in brief: as §1

[22] = biological target: Neu5Ac(a2-3)Gal6S(b1-4)[Fuc(a1-3)]GlcNAc
Method in brief: as §1

Neu5Ac(a2-3)GalNAc = biological target: Neu5Ac(a2-3)GalNAc
Method in brief: as §1

[23] = biological target: Neu5Ac(a2-3)GalNAc(b1-4)GlcNAc
Method in brief: as §1

[24] = biological target: Neu5Ac(a2-3)[GalNAc(b1-4)]Gal(b1-4)Glc
Method in brief: as §1

[25] = biological target: Neu5Ac(a2-3)[GalNAc(b1-4)]Gal(b1-4)GlcNAc
Method in brief: as §1

[26] = biological target: Neu5Ac(a2-3)[Neu5Ac(a2-6)]GalNAc
Method in brief: as §1

Neu5Ac(a2-6)Gal = biological target: Neu5Ac(a2-6)Gal
Method in brief: as §1

Neu5Ac(a2-6)Gal(b1-4)Glc = biological target: Neu5Ac(a2-6)Gal(b1-4)Glc
Method in brief: as §1

[27] = biological target: Neu5Ac(a2-6)Gal(b1-4)GlcNAc
Method in brief: as §1

[28] = biological target: Neu5Ac(a2-6)Gal(b1-4)GlcNAc(b1-3)Gal(b1-4)GlcNAc
Method in brief: as §1

[29] = biological target: Neu5Ac(a2-6)Gal(b1-4)GlcNAc(b1-3)Gal(b1-4)[Fuc(a1-3)]GlcNAc(b1-3)Gal(b1-4)[Fuc(a1-3)]GlcNAc
Method in brief: as §1

[30] = biological target: Neu5Ac(a2-6)Gal(b1-4)GlcNAc6S
Method in brief: as §1

Neu5Ac(a2-6)GalNAc = biological target: Neu5Ac(a2-6)GalNAc
Method in brief: as §1

[31] = biological target: Neu5Ac(a2-6)GalNAc(b1-4)GlcNAc
Method in brief: as §1

Neu5Ac(a2-8)Neu5Ac = biological target: Neu5Ac(a2-8)Neu5Ac
Method in brief: as §1

[32] = biological target: Neu5Ac(a2-8)Neu5Ac(a2-3)Gal(b1-4)Glc
Method in brief: as §1

[33] = biological target: Neu5Ac(a2-8)Neu5Ac(a2-3)[GalNAc(b1-4)]Gal(b1-4)Glc
Method in brief: as §1

[34] = biological target: Neu5Ac(a2-8)Neu5Ac(a2-8)Neu5Ac
Method in brief: as §1

[35] = biological target: Neu5Ac(a2-8)Neu5Ac(a2-8)Neu5Ac(a2-3)Gal(b1-4)Glc
Method in brief: as §1

[36] = biological target: Neu5Ac(a2-8)Neu5Ac(a2-8)Neu5Ac(a2-3)[GalNAc(b1-4)]Gal(b1-4)Glc
Method in brief: as §1

[37] = biological target: Neu5Ac(a2-8)Neu5Ac(a2-8)Neu5Ac(a2-8)Neu5Ac(a2-3)[GalNAc(b1-4)]Gal(b1-4)Glc
Method in brief: as §1

Neu5Ac(b1-6)GalNAc = biological target: Neu5Ac(b1-6)GalNAc
Method in brief: as §1

[38] = biological target: Neu5Ac(b2-6)Gal(b1-4)GlcNAc
Method in brief: as §1

[39] = biological target: Neu5Ac9Ac(a2-6)Gal(b1-4)GlcNAc
Method in brief: as §1

[40] = biological target: Neu5Gc(a2-3)Gal(b1-3)GlcNAc
Method in brief: as §1

[41] = biological target: Neu5Gc(a2-3)Gal(b1-3)[Fuc(a1-4)]GlcNAc
Method in brief: as §1

Neu5Gc(a2-3)Gal(b1-4)Glc = biological target: Neu5Gc(a2-3)Gal(b1-4)Glc
Method in brief: as §1

[42] = biological target: Neu5Gc(a2-3)Gal(b1-4)GlcNAc
Method in brief: as §1

[43] = biological target: Neu5Gc(a2-3)Gal(b1-4)[Fuc(a1-3)]GlcNAc
Method in brief: as §1

[44] = biological target: Neu5Gc(a2-6)Gal(b1-4)GlcNAc
Method in brief: as §1

Neu5Gc(a2-6)GalNAc = biological target: Neu5Gc(a2-6)GalNAc
Method in brief: as §1

B1: F17fG (Escherichia coli), Q9RH91 (protein)
chain: MTNFYKVFLAVFILVCCNISHAAVSFIGSTENDVGPSQGSYSSTHAMDNLPFVYNTGHNIGYQNANVWRISGGFCVGLDGKVDLPVVGSLDGQSIYGLTEEVGLLIWMGDTNYSRGTAMSGNSWENVFSGWCVGNYVSTQGLSVHVRPVILKRNSSAQYSVQKTSIGSIRMRPYNGSSAGSVQTTVNFSLNPFTLNDTVTSCRLLTPSAVNVSLAAISAGQLPSSGDEVVAGTTSLKLQCDAGVTVWATLTDATTPSNRSDILTLTGASTATGVGLRIYKNTDSTPLKFGPDSPVKGNENQWQLSTGTETSPSVRLYVKYVNTGEGINPGTVNGISTFTFSYQ
glycan array binding signal (z-score) [1]: -0.221
glycan array binding signal (z-score) [2]: -0.169
glycan array binding signal (z-score) [3]: -0.074
glycan array binding signal (z-score) [4]: -0.22
glycan array binding signal (z-score) [5]: -0.26
glycan array binding signal (z-score) [6]: -0.228
glycan array binding signal (z-score) [7]: 0.311
glycan array binding signal (z-score) [8]: -0.105
glycan array binding signal (z-score) [9]: -0.193
glycan array binding signal (z-score) (Neu5Ac(a2-3)Gal(b1-4)Glc): -0.219
glycan array binding signal (z-score) [10]: -0.292
glycan array binding signal (z-score) [11]: -0.266
glycan array binding signal (z-score) [12]: -0.346
glycan array binding signal (z-score) [13]: -0.335
glycan array binding signal (z-score) [14]: -0.068
glycan array binding signal (z-score) [15]: -0.069
glycan array binding signal (z-score) [16]: -0.286
glycan array binding signal (z-score) [17]: -0.227
glycan array binding signal (z-score) [18]: -0.23
glycan array binding signal (z-score) [19]: -0.209
glycan array binding signal (z-score) [20]: -0.2
glycan array binding signal (z-score) [21]: 0.007
glycan array binding signal (z-score) [22]: -0.144
glycan array binding signal (z-score) (Neu5Ac(a2-3)GalNAc): -0.146
glycan array binding signal (z-score) [23]: -0.295
glycan array binding signal (z-score) [24]: -0.33
glycan array binding signal (z-score) [25]: -0.293
glycan array binding signal (z-score) [26]: -0.085
glycan array binding signal (z-score) (Neu5Ac(a2-6)Gal): -0.083
glycan array binding signal (z-score) (Neu5Ac(a2-6)Gal(b1-4)Glc): -0.205
glycan array binding signal (z-score) [27]: 0.01
glycan array binding signal (z-score) [28]: -0.167
glycan array binding signal (z-score) [29]: -0.256
glycan array binding signal (z-score) [30]: -0.161
glycan array binding signal (z-score) (Neu5Ac(a2-6)GalNAc): -0.267
glycan array binding signal (z-score) [31]: -0.157
glycan array binding signal (z-score) (Neu5Ac(a2-8)Neu5Ac): -0.271
glycan array binding signal (z-score) [32]: -0.347
glycan array binding signal (z-score) [33]: -0.257
glycan array binding signal (z-score) [34]: -0.132
glycan array binding signal (z-score) [35]: -0.005
glycan array binding signal (z-score) [36]: -0.208
glycan array binding signal (z-score) [37]: 0.011
glycan array binding signal (z-score) (Neu5Ac(b1-6)GalNAc): -0.293
glycan array binding signal (z-score) [38]: -0.149
glycan array binding signal (z-score) [39]: 0.019
glycan array binding signal (z-score) [40]: -0.287
glycan array binding signal (z-score) [41]: -0.305
glycan array binding signal (z-score) (Neu5Gc(a2-3)Gal(b1-4)Glc): -0.295
glycan array binding signal (z-score) [42]: -0.278
glycan array binding signal (z-score) [43]: -0.269
glycan array binding signal (z-score) [44]: -0.258
glycan array binding signal (z-score) (Neu5Gc(a2-6)GalNAc): 0.033
